# Source: the supplement of paper PMC3334620
# Over roughly 33,000 sequences, “E-score (-0.5 to 0.5)” has its median near -0.056; the highest 2% begin near 0.38. The list shows a part of the results.
# Biological target: Stb4 (UniProt P50104)
# Assay: PBM E-score (8-mer binding enrichment) (E-score (-0.5 to 0.5)); higher = stronger / more preferred TF binding; most listed sequences are background and not binding sites
# Conditions: protein concentration: 200 nM; construct: GST-DNA-binding domain
# Procedure, shortened: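 Bound GST-tagged yeast transcription factors, applied at about 100-200 nM to double-stranded universal all-10-mer Agilent arrays, were detected with fluorescent anti-GST. Scans were normalised with masliner. A modified Wilcoxon-Mann-Whitney statistic, the E-score, was assigned to each ungapped eight-base word pooled with its reverse complement by the Universal PBM Analysis Suite.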
row,Sequence,PBM E-score
1,CATAACCC,0.051
2,AGAAACAA,-0.0711
3,CTTGCAAA,0.0481
4,GAATTGTA,-0.0569
5,CCTTAAAG,-0.149
6,CCGTGGCG,0.213
7,CATGGCGG,0.148
8,ATACAGAA,0.131
9,CATTTAGG,-0.174
10,AGCTGGTG,-0.0692
11,GCTTCGGA,0.439
12,CCGTTCGA,0.064
13,CGCGGCTC,0.191
14,CTGCAGAA,-0.0161
15,GATTATGA,-0.0508
16,CAAGTTCA,0.123
17,CCAAAAAG,-0.134
18,GTGTTATA,-0.0355
19,ACCACGGG,0.134
20,AATTTTAC,-0.0134
21,CCCGCCGA,0.367
22,ACATTAAG,-0.154
23,ACCGGTTA,0.286
24,GGAGGCTA,0.0179
25,CCCAAGGC,-0.178

row,Sequence,PBM E-score
1,GTTGGGTA,-0.207
2,ATAATCGC,-0.083
3,AGGGTTCG,0.0469
4,TCCTTGAA,-0.104
5,ACGGATAT,0.407
6,CCAGGTCC,0.0393
7,TATTGACA,-0.0808
8,ACAGCCCT,-0.116
9,GTTATCTA,-0.0202
10,CGACATCG,0.0858
11,CTCTCACC,-0.0864
12,GACCAGCA,-0.245
13,AACACCGT,-0.0272
14,GCCCCCCC,-0.167
15,AATTAGCT,-0.0435
16,AGCGCGAA,0.0663
17,CTGCGGAA,0.197
18,GATATTCA,0.101
19,CAAGCATA,-0.0827
20,AGGGGTAT,-0.116
21,CTATAATA,-0.0792
22,GTCGCGGA,0.194
23,AACATAGC,-0.0662
24,GCATAGGC,-0.247
25,CACATCCA,-0.0807

row,Sequence,PBM E-score
1,ACGCCGTA,-0.208
2,CCAAATAC,-0.121
3,ACAACACT,-0.184
4,CTCGGAAA,0.479
5,CTTGCAGA,-0.113
6,GGATGTTA,0.265
7,CCCTCTTA,-0.264
8,CAACGTAC,-0.254
9,AAGGCTTG,-0.181
10,CCAGCGGA,-0.0293
11,ACTAAATA,-0.00118
12,CGATAGCG,0.0721
13,ACGCATGC,0.0904
14,GAAAGCGC,-0.0508
15,GAACCTTC,-0.0495
16,GTAAAAGA,-0.245
17,ACCAAAGT,-0.199
18,TTCCTCAA,-0.14
19,ACAGCTGG,-0.284
20,AACCAGTG,-0.201
21,CGAAGCAG,0.0839
22,CGTGTACA,-0.0735
23,CACTTTAA,-0.0043
24,CTAATTTA,-0.0483
25,CCTAGACG,-0.065

row,Sequence,PBM E-score
1,CACTGCAG,-0.081
2,AGATTCGC,-0.19
3,ATACCACG,0.0304
4,ATGGCGTG,-0.149
5,ACCAGCTC,-0.0869
6,CGTCAACG,-0.0452
7,ACATCGCG,-0.139
8,TAAGTTAA,-0.0707
9,CCTGCCGC,0.0376
10,TCGGTAAA,0.433
11,GATTGTGC,0.0549
12,ATCCTTTG,-0.0972
13,CCGCCGCG,0.255
14,ACCTTTTA,-0.206
15,GTATGCAC,-0.0733
16,CACTTTTC,-0.0102
17,GATCGGCC,0.218
18,CCTGGATA,-0.0829
19,ATGCCCGG,0.274
20,AAAATCCT,0.0795
21,GAGTACTC,-0.00922
22,GCAGTGTA,-0.1
23,TGGTGGAA,-0.133
24,AACACTCA,-0.0187
25,AGGAGCCA,-0.29

row,Sequence,PBM E-score
1,ACAGGCCG,0.189
2,ACTGACGA,-0.153
3,AGATACTC,-0.0748
4,AGTCTCCG,0.336
5,GAAAAATA,0.18
6,AAGGACAT,-0.101
7,GCTGCCAC,-0.00973
8,CTCGTGGA,-0.158
9,GAGCGTGA,-0.0314
10,ATAAGGCA,0.0166
11,GGGAGCTA,-0.00543
12,CGTACGCC,0.0198
13,ATGAGTTG,0.0781
14,AAAAATTA,0.0181
15,CTGTCACA,-0.293
16,GAAAGCCA,-0.109
17,ATGCGTGC,-0.105
18,GAATGTCC,-0.0179
19,ATGAAGAC,-0.178
20,TAGCTGGA,-0.33
21,AACTTTAA,0.0938
22,AAGGATCA,-0.146
23,ACTAGGCG,0.0261
24,CGAATCGA,0.179
25,TGCAAACA,-0.366

row,Sequence,PBM E-score
1,CGTTGCTC,0.104
2,ATCCCGCG,0.307
3,GTTGTAGA,-0.0823
4,CGTGTCTC,0.0641
5,AAGCAGAT,-0.0661
6,ACGATACC,0.109
7,CGTACACA,-0.0766
8,TGCGATAA,-0.0908
9,ATGTCACC,0.0791
10,ATGTAGAA,-0.0981
11,CAATCAAG,-0.245
12,CACAGTTA,-0.193
13,AAATCGCC,0.0505
14,CGAAAAGA,0.146
15,AACGTGGC,-0.0642
16,ACTCGGGA,0.44
17,CGATCCGC,0.325
18,AGTATTAC,0.103
19,CACTAACG,-0.267
20,CCTTCCTC,-0.27
21,CGGTAAAA,0.346
22,GACCTGCC,0.0159
23,GAATATTC,0.274
24,GCGTGACC,-0.11
25,AAGCCCAA,-0.125

row,Sequence,PBM E-score
1,CACAGAGA,-0.118
2,CAACCGGA,0.281
3,CAATCTAG,0.0788
4,TGAGCTCA,-0.157
5,AATGTCCG,0.252
6,AGACTGGA,-0.123
7,CACATGTG,-0.275
8,CATCAACA,-0.0215
9,CCCTCAGG,-0.0461
10,ATGATGTC,-0.0462
11,ACTGAAAT,-0.18
12,AGTTACTG,0.0303
13,AGAAATGG,-0.0954
14,CCTGGCTA,-0.309
15,CAGGAGTC,-0.0625
16,CACAAGGC,-0.0505
17,ACATTGGC,-0.103
18,ACCGTCGT,-0.082
19,CATCTTCC,0.243
20,CACCGGAC,0.215
21,GGGCGAAC,0.05
22,CGGGCGAA,0.158
23,GTCGGTTA,0.343
24,AAGCGAAC,-0.102
25,ATACGACC,-0.119

row,Sequence,PBM E-score
1,CGCGCTCA,-0.26
2,CTATTTCA,0.0134
3,CTGGGCTA,-0.0338
4,AAATCATA,0.0586
5,CGCCAGGA,-0.169
6,AGCGACGG,0.1
7,ACGAGCAG,-0.195
8,ATCCAACG,-0.1
9,AATGCATT,-0.0711
10,AAGGAAAC,0.0426
11,ACCCAGTG,-0.234
12,GACGGGAC,0.213
13,GAATCCAA,0.0533
14,ACACACTA,-0.0821
15,CGGAGAGA,0.232
16,CAGGATGG,-0.251
17,TAGCGATA,-0.157
18,AGGCGAAA,-0.11
19,AACCATGA,0.0882
20,CAGGTTAC,-0.0726
21,CCGGGAAA,0.33
22,AAAGCATG,-0.0421
23,ATTATGCA,0.0972
24,GGGAGGGA,0.155
25,GATTTGGA,0.0244

row,Sequence,PBM E-score
1,CATAAATC,0.025
2,GAGTAACA,0.117
3,ATGTCCGA,0.319
4,AGTGGACC,-0.234
5,AATGGGGC,-0.232
6,CTGTAACC,0.0901
7,CAGGGATG,-0.129
8,CGATTTAA,-0.122
9,CATTAAAC,-0.181
10,GCTCTCCC,0.0616
11,AAAATATT,0.119
12,CGCCAGCG,-0.0289
13,AAGGTTTA,-0.25
14,TTGTGAAA,-0.187
15,ACATGATC,-0.0719
16,GAATTGCC,0.189
17,ATATTCCC,0.32
18,GCAAAGGA,0.0013
19,ACATACCC,0.146
